The results in this text go back to ChEMBL document CHEMBL4888484, “Replenishing the malaria drug discovery pipeline: Screening and hit evaluation of the MMV Hit Generation Library 1 (HGL1) against asexual blood stage Plasmodium falciparum ,using a nano luciferase reporter read-out” (2022).

Out of some 150,000 compounds screened, about 540 (0.36%) showed an effect of 50% or more. The list shows a part of the results.

The test concerns Plasmodium falciparum. The test can be described thus: Primary screen in NF54 nanoGlo assay, in single point, at 2uM, 72h; a lower Z score goes with more inhibition. It counts as functional, Erythrocyte. The conditions noted are these: timepoint 72 hour.
Turning to `O=C(Cn1nc2c(N3CCc4ccccc4C3)nccn2c1=O)Nc1ccccc1F`, the “% Inhibition” value is -14% and the Z score is listed as 1.34.
`COc1cccc(COC(=O)C2=CN(C)S(=O)(=O)N=C2C)c1`: the “% Inhibition” value stood at 2% and the Z score is -0.43.
The matching figures for `COC(C)(C)C[C@H](C)NC1(Cc2ccccc2)CC1`: -8% and 1.6.
Regarding `CCN(CCC#N)C(=O)CNc1cc(F)cc(Br)c1`, the “% Inhibition” value is given as -12% and the Z score was found to be 1.22.
Take `O=C(CC1CCCCC(=O)N1)Nc1ccccc1C(O)C(F)(F)F` (centres undefined): the “% Inhibition” value stood at 4% and the Z score is given as -0.45.
Regarding `COc1cc(NC(=O)N[C@H]2CCN(c3ccc(F)cc3)C2=O)cc(OC)c1`, the “% Inhibition” value was 2% and the Z score was -0.27.
Consider `CN1CC2(CCN(c3nccc(N)n3)CC2)C[C@@H](c2ccccc2)C1=O`, for which the “% Inhibition” value is recorded as -9% and the Z score was 1.98.
For `NC(=O)[C@H]1CCN(C(=O)C2=CCCC2)C1`, the “% Inhibition” value was 0% and the Z score is -0.01.
Take `Cn1nccc1C(=O)N1CC[C@H](CCOc2ccccc2F)C1`: the “% Inhibition” value was -21% and the Z score is 4.07.
Regarding `Cc1cc(C)c2c(c1)N(Cc1nccnc1C)CCO2`, the “% Inhibition” value is reported as -2% and the Z score turned out to be 0.32.
In the case of `CC(=O)N[C@H]1C[C@H]2CN(C(=O)CCc3ccccc3)CC(=O)N2C1`, the “% Inhibition” value is -12% and the Z score is 1.65.
In the same order, the values of `Cc1cnn(C)c1S(=O)(=O)N1CC(c2cccc(Cl)c2)C1` are -3% and 0.58.
As for `Cc1ccc(O[C@H]2COCC[C@H]2NC(=O)C2=NN(C)C(=O)CC2)cn1`, the “% Inhibition” value is -1% and the Z score worked out at 0.14.
Regarding `NC(=O)c1ccccc1NC(=O)c1coc(NC(=O)C2CCC2)n1`, the “% Inhibition” value is reported as 0% and the Z score is recorded as -0.04.
For the compound `CCCCn1nc(CC(N)=O)nc1[C@@H]1CN(C)c2ccccc2O1`, the “% Inhibition” value is recorded as -13% and the Z score came out at 1.77.
The matching figures for `Cc1ccc(N2CN(CC(=O)Nc3ccc(F)cc3F)S(=O)(=O)c3cccnc32)cc1`: -12% and 1.33.
Consider `O=C(c1ncn2c(=O)n(-c3ccccc3)nnc12)N1CCCC1`, for which the “% Inhibition” value was 34% and the Z score is -3.86.
In the same order, the values of `CC(=O)N[C@H]1CCN(Cc2cc3ccc(C)cc3[nH]c2=O)C1` are -8% and 1.31.
Take `Cc1cccc(C(NC(=O)[C@@H]2CCC(=O)N2)c2cccc(C)c2)c1`: the “% Inhibition” value is -3% and the Z score turned out to be 0.64.
In the case of `CC(C)Cn1ncc(-c2nc(-c3ccncc3)no2)c1C(F)F`, the “% Inhibition” value is recorded as -2% and the Z score amounted to 0.33.
`CC(=O)Nc1ccc(NC(=O)c2cn3c(n2)C(=O)N[C@H](c2ccc(F)cc2)C3)cc1`: the “% Inhibition” value is on record as -3% and the Z score is 0.41.
With `Cc1oc(-c2ccccc2F)nc1C(=O)OCC(C)(C)C1OCC(C)(C)CO1`, the “% Inhibition” value is listed as -13% and the Z score is reported as 1.61.
Turning to `CCOc1ccc(-n2c(CN3CCN(C(=O)Nc4ccc(F)cc4)CC3)nc3cccnc32)cc1`, the “% Inhibition” value turned out to be 3% and the Z score is on record as -0.37.
The matching figures for `CC(C)c1ccc(-c2cc3n(n2)C[C@@](C)(C(=O)NC2CCCCC2)N(Cc2ccccc2)C3=O)cc1`: 20% and -3.19.
Turning to `COc1cccc(CC(=O)NC[C@@](O)(c2ccccc2)C2CC2)c1`, the “% Inhibition” value was found to be 26% and the Z score is reported as -3.55.
Take `C[C@H](O)CCNC(=O)Nc1cc(Cl)c(OC(F)F)c(Cl)c1`: the “% Inhibition” value came to 1% and the Z score is given as -0.07.
As for `CC[C@@H](CCNC(=O)Nc1ccccn1)NC(=O)Nc1ccccn1`, the “% Inhibition” value is -16% and the Z score worked out at 2.14.
For the compound `CC(C)c1nn(C)cc1-c1nc2ncccn2n1`, the “% Inhibition” value is recorded as -19% and the Z score came to 3.
Take `CC(C)N1CCN(C(=O)c2ccc(-c3cccs3)nc2)CC1`: the “% Inhibition” value is -15% and the Z score is 2.91.
In the case of `Fc1ccc([C@@H]2C=C(c3ccncc3)Nc3nc(C(F)(F)F)nn32)cc1`, the “% Inhibition” value is listed as -27% and the Z score came to 3.22.
The matching figures for `CCc1ccc(C(=O)N2CCCN(c3nc(C4CCOCC4)nc4c3cnn4-c3ccccc3)CC2)cc1`: 25% and -4.76.
`Cc1nc(NC(=O)c2c(Br)cnn2C)n[nH]1`: the “% Inhibition” value is on record as -3% and the Z score was 0.49.
In the case of `Cc1nc(C(F)(F)F)sc1C(=O)NCCn1ccccc1=O`, the “% Inhibition” value is listed as -13% and the Z score amounted to 2.41.
Regarding `CN(C[C@H]1CCCCN1C)C(=O)c1cccc(-c2ccc3scnc3c2)c1`, the “% Inhibition” value is -15% and the Z score came to 1.78.
The matching figures for `CCOC1CC(O)C12CCN(c1cc(N3CCOCC3)ncn1)CC2` (centres undefined): -5% and 0.73.
On to `CC(C)c1cncnc1N1CCC(Oc2cccc(F)c2)(C(=O)O)CC1`, for which the “% Inhibition” value is listed as -11% and the Z score came to 2.13.
Turning to `CO[C@H]1CS(=O)(=O)C[C@@H]1NC(=O)c1cc(Cl)cn1C`, the “% Inhibition” value is recorded as -15% and the Z score is 1.87.
In the same order, the values of `CN(C(=O)c1c(C2CCC2)cnn1C)c1ncc(Br)cn1` are -7% and 0.91.
As for `COc1ccc(OC)c2c1cc(C(=O)NCc1ccc3c(c1)OCO3)n2C`, the “% Inhibition” value was -4% and the Z score amounted to 0.66.
As to `CCOC(=O)[C@@H]1CCCCN1C(=O)c1cn(C)c2ccc(C)cc2c1=O`, the “% Inhibition” value is 9% and the Z score is recorded as -1.29.
The matching figures for `CC(=O)N(C)CC(=O)Nc1ccccc1NCC1CCCCC1`: 37% and -4.96.
`O=C(Cc1cccs1)N(CC(F)(F)F)C1CCOCC1`: the “% Inhibition” value was determined as 2% and the Z score is -0.28.

For orientation: % Inhibition means the relative decrease from the control value, in per cent.
